The chains are these.
B1: OR4K15 (parent)
chain: GUUAACGGUCAUAGGCCAUGGAAACUAGGAGCACCAUUUCGCUGCCAGUGAAGAAAUGAACAAAGAAAAUCUGGGCCAGGCAGGCAUCAAAAGAAAUAGUCUUGCGCUCAACCAGAAAGUCUGUAAUCAUUUUAAGGGUA

Read counts are not given, so values of variants with three or more changes are uncertain.

This is an account of results in the RNAGym collection of RNA variant scans (doi:10.7554/elife.90254).

In the data set the parent is B1. As to the kind of experiment: self-cleavage, relative activity (ratio to wild type); higher = more cleavage; in vitro, sequencing; the parent is a self-cleaving ribozyme.
For GUUAACUGUCAUAGGCCAUGGAAACUAGGAGCCCCAUUUCGCUGCCAGAGAAGAAAUGAACAAAGAAAAUCUGGGCCAGGCAGGCAUCAAAAGAAAUAGUCUUGCGCUCAACCAGAAAGUCUGUAAUCAUUUUAAGGGUA, the self-cleavage turned out to be 2.21.

For GUUAACGAUCAUAGGCCAAGGAAACUAGGAGCACCAUUUCGCUGCCAGUGAAGAAAUGAACAAUGAAAAUCUGGGCCAGGCAGGCAUCAAAAGAAAUAGUCUUGCGCUCAACCAGAAAGUCUGUAAUCAUUUUAAGGGUA, the self-cleavage was found to be 1.69.

In the case of GUUAACGAUCAUAGGCCAUGGAAACUAGGAGCACCAUUUCGCCGCCAGUGAAGAAAUGAACAACGAAAAUCUGGGCCAGGCAGGCAUCAAAAGAAAUAGUCUUGCGCUCAACCAGAAAGUCUGUACUCAUUAUAAGGGUA, the self-cleavage was 1.06.

Turning to GUUAACGCUCAUAGGCCAUGGAAACUAGGAGCACCAUUUCGCUGCCAGUGAAGAGAUGAACAAAGAAAAUCUGGGCCAGGCAGGCAUCAAAAGAAAUAGUCUUGCGCUCAACCAGAAAGUCUGUAAUCAUUUUAAGGGUG, the self-cleavage is 1.53.

For the variant GUUAACGAUCAUAGGCCGUGGAAACUAGGAGCACCAUUUCGCAGCCAGUGAAGAAAUGAACAAAGAAAAUCUGGGCCAGGCAGGCAUCAAAAGAAAUAGCCUUGCGCUCAACCAGAAAGUCUGUAAUCAUUUUAAGGGUA, the self-cleavage is 1.15.

On to GUUAACGAUCAUAGGCCAUGGAAACUAGGAGCACCAUUUCGCAGCCAGUGAAGAAAUGAACAAAGAAAAUCUGGGCCAGGCAGGCAUCAAAAGAAAUAGUCUUGCGCUCAACCAGAAAGCCUGUAAUCAUUUUAAGGGUA, for which the self-cleavage came out at 1.85.

Consider GUUAACCGUCAUAGGCCAUGGAAACUAGGAGCACCAUUUCGCUGCCAGUGAAGAAAUGAACAAAGAAAAUCUGGGCCAGGCAGGCAUCAAAAGAAAUAGUCUUGCGCCCAACCAGAAAGUCUGUAAUCGUUUUAAGGGUA, for which the self-cleavage was found to be 0.

For the variant GUUAACUGUCAUAGGCCAUGGAAGCUAGGAGCACCAUUUCGCGGCCGGUGAAGAAAUGAACAAAGAAAAUCUGGGCCAGGCAGGCAUCAAUAGAAAUAGUCUUGCGCUCAACCAGAAAGUCUGUAAUCAUUUUAAGGGUA, the self-cleavage is 0.92.

Consider GUUAACUGUCAUAGGCCAUGGAAACUAGUAGCACCAUUUCGCUGCCAGUGAAGAAAUGAACAAAGAAAAUCUGGGCCAGGCAGGCAUCAAAAGUAAUAGUCUUGCGCUCAACCAGAAAGUCUGUAAUCAUUUUAAGGGUA, for which the self-cleavage was 1.37.

Turning to GUUAACGAACAGAGGCCAUGGAAACUAGGAGCACCAUUUCGCUGCCAGUGAAGAAAUGAACAAAGAAAAUCUGGGCCAGGCAGGCAUCAAAAGAAAUAGUCUUGCGCGCAACCAGAAAGUCUGUGAUCAUUUUAAGGGUA, the self-cleavage worked out at 0.03.

As for GUUAACUGUCAUAGGCCAUGGAAACUAGGAGCACCAUUCCGCUGCCAGUGAAGAAAUGAACAAAGAAAAUCAGGGCCAGGCAGGCAUCAAAAGAAAUAGUCUUGCGCUCAACCUGAAAGUCUGUAAUCAUUUUAAGGGUA, the self-cleavage was found to be 1.5.

Regarding GUUAACUGUCAUAGGCCAUGGAAACUAGGAGCACCAUUUCGCUGCCAGUGAAGAAAUGAACAAAGAAAAUCUGGGCCAGGCAGGCAUCAGAAGAAAUAGUCUUGCGCUCAACCAGGAAGUCUGUAAACAUUUUAAGGGUA, the self-cleavage worked out at 1.23.

As to GUUAACUGUCAUAGGCCACGGAAACUAGGAGCACCAUUUCGCUGCCAGCGAAGAAAUGAACAAAGAAAAUCUGGGCCAGGCAGGCAUCAAAAGAAAUAGUCUUGCGCUCAACCAGAAAGUCUGUAAUCAUUUUAAGGGUA, the self-cleavage was 1.05.

Consider GUUAACUGUCAUAGGCCAUGGAAACUAGGAGCACCAUUUCGCUGCCAGUGAAGAAAUGAACAAAGAAAAUCUGGGCCAGGCAGGUAUCAAAAGAAAUAGUCUUGCGCUCAACCAGAAAGCCUGUAAUCAUUUUAAGGGUA, for which the self-cleavage amounted to 0.34.

As to GUUAACUGUCAUAGGCCAUGGAAACUAGGAGCACCAUUUCGCUGCCAGUGAAGAAAUGAACAAAGAAAAUCUGGGCCAGGCAGGCAACAAAAGAAAUAGUCUUGCGCUCAACCAGAAAGUCUGUAAUCGUCUUAAGGGUA, the self-cleavage was 1.01.

Regarding GUUAACGAUCAUAGGCCAUGGAAACUAGGAGCACCACUUCGCUGCCAGUGAAGAAAUGAACAAAGGAAAUCUGGGCCAGGCAGGCACCAAAAGAAAUAGUCUUGCGCUCAACCAGAAAGUCUGUAAUCAUUUUAAGGGUA, the self-cleavage came to 0.42.

In the case of GUUAACGAUCAUAGGCCAUGGAAACUAGGAGCACCAUUUCGCUGCCAGUGAAGAAAGGAACAAUGUAAAUCUGGGCCAGGCAGGCAUCAAAAGAAAUAGUCUUGCGCUCAACCAGAAAGUCUGUAAUCAUUUCAAGGGUA, the self-cleavage was determined as 1.03.

For GUUAACGAUCAUAGGCCAUGGAAACUAGGAGCACCAUUUCGCUGCCAGUGAAGAAAUGAACAAAGAAAAUCUGGGCCAGGCAGGCUUCAAAAGAAAAAGUCUUGCGCUUAACCAGAAAGUCUGUAAUCAUUUUAAGGGUA, the self-cleavage was determined as 1.74.

In the case of GUUAACGAUCAUAGGCCACGGAAACUAGGAGCUCCAUUUCGCUGCCAGUGAAGAAAUGAACAAAGAAAAUCUGGGCCAAGCAGGCAUCAAAAGAAAUAGUCUUGCGCUCAACCUGAAAGUCUGUAAUCAUUUUAAGGGUA, the self-cleavage was determined as 0.03.

On to GUUAACGAUCAUAGGCCAUGGAAACUAGGUGCACCAUUUCGCUGCCAGUGAAGAAAUGAACAAAGAAAAUCUGGGCCAGGCAGGCAUCAAAAGAAAUAGUCUUGCGCUCAACCGGAAAGUCUGUAACCAUUUUAAGGGUA, for which the self-cleavage is 0.01.

For the variant GUUAACGAUCAUAGGCCAUGGAAACUAGGGGCACCAUUUCGCUGCCAGUGAAGAAGUGAACAAAGAAAAUCUGGGCCAGGCAGGCAUCAAAAGAAAUAGUCUUGCGCUCAACCAGAAAGUCUGUAAUCAUUUUAAGGGUA, the self-cleavage came to 1.06.

In the case of GUUAACUGUCAUAGGCCAUGGGAACUAGGAGCACCAUUUCGCUGCCUGUGAAGAAAUGAACAAAGAAAAUCUGGGCCAGGCAGGCAUCAAAAGAGAUAGUCUUGCGCUCAACCAGAAAGUCUGUAAUCAUUUUAAGGGUA, the self-cleavage came to 1.61.

Consider GUUAACGAUCAUAGGCCAUGGAAACUAGGAGCACCAUUUCGCUGCCAGUGAAGAAAUGAACAAAGAAAAUCUGGGCCAGGCAGGCAUCAAAAGAAAUAGCCUUGCGCUCAACCAGAAAGUCUGUAACCAUUUUAAGGGUA, for which the self-cleavage came out at 2.37.

For GUUAACAGUCAUAGGCCAUGGAAACUAGGAGCACCAUUUCGCUGCCAGCGAAGAAAUGGACAAAGAAAAUCUGGGCCAGGCAGGCAUCAAAAGAAAUAGUCUUGCGCUCAUCCAGAAAGUCUGUAAUCAUUUUAAGGAUA, the self-cleavage amounted to 0.04.

On to GUUAACUGUCAAAGGCCAUGGAAACUAGGAGCACCAUUUCGCUGCCAGUGAAGAAAUGAACAAAGAAAAUCUGGGCCAGGCAGGCAUCAAAAGAGAUAGUCUUGCGCUCAACCAGAGAGUCUGUAAUCAUUUUAAGGGUA, for which the self-cleavage stood at 1.83.

As to GUUAACUGUCAUAGGCCAUAGGAACUAGGAGCACCAUUUCGCUGCCAGUGAAGAAAUGAACUAAGAAAAUCUGGGCCAGGCAGGCAUCAAAAGAAAUAGUCUUGCGCUCAACCAGAAAGUCUGUAAUCAUUUUAAGGGUA, the self-cleavage stood at 1.41.

On to GUUAACGAUCAUAGGCCAUGGAAACUAGGAGCACCAUUUCGCUGCCAGUGAAGAAAUGAACAAUGAAAAUCUGGGCCAGGCAGGCAUCAAAAGAAAUAGUCUUGCGCUCAACCAAAAAGUCUGUAAUCAUUUUAAGGGUA, for which the self-cleavage was 0.28.

For GUUAACGAUCAUAGGCCAUGGAAACUAGGGGCACCAUUUCGCUGCCAGUGGAGAAAUGAACAAAGAAAAUCCGGGCCAGGCAGGCAUCAAAAGAAAUAGUCUUGCGCUCAACCAGAAAGUCUGUAACCAUUUUAAGGGUA, the self-cleavage worked out at 0.26.

As to GUUAACUGUCAUAGGCCAUGGAAACUAGGAGCACCAUUUCGCUGCCAGUGAAGAAAUGAACAAAGAAAAUCUGGGCCAGGCAGGCAUCAAAAGAAAUAGUCUCGCGCCCAACCAGGAAGUCUGCAAUCAUUUUAAGGGUA, the self-cleavage worked out at 0.

Regarding GUUAACCGUCAUAGGCCUUGGAAACUAGGAGCACCAUUUCGCUGCCAGUGAAGAAAUGAACAAAGAAAAUCUGGGCCAGGCAGGCAUCAAAAGAAAUAGUCUUGCGCCCAACCAGAAAGUCUGUAAUCGUUUUAAGGGUA, the self-cleavage turned out to be 0.03.

GUUAACGCUCAUACGCCAUGGAAACUAGGAGCACCAUAUCGCUGCCAGUGAAGAAAUGAACAAAGAAAAUCUGGGCCAGGCAGGCAUCAAAAGAAAUAGUCUUGCGCUCAGCCAGAAGGUCUGUAAUCAUUCUAAGGGUA: the self-cleavage is 0.02.

Regarding GUUAACAGUCAUAGGCCAUGGAAACUAGGAGCACCAUUUCGCUGCCAGUGAAGAAAUGAACAAAGAAAACCUGGGCCAGGCAGGCAUCAAAAGAAAUAGUCUUGCGCUCAACCAGAAAGUCUGUAACCAUUUUAAGGGUA, the self-cleavage worked out at 0.22.

Regarding GUUAACGAUCAUAGGCCAUGGAAACUAGGAGCACCAUUUCGCUGCCAGUGAAGAAAUGAACAAAGAAAAUCUGGGCCAGGCAGGCUUCAAAAGAAAUAGUCUUGCGCUCAACCCGAAAGUCUGUAAUCAUUUUAAGGGUA, the self-cleavage was found to be 0.1.

With GUUAACUGUCAUAGGCCAUGGAAACUAGGAGCACCAUUUCGCUGCCAGUGAAGAAAUGAACAAAGAGAAUCUGGGCCAGGCAGGCAUCAAAAGAAAUAGUCUUGCGCUCAACCAGAAUGUCUGUAAUCAUUUUAAGGGUA, the self-cleavage stood at 0.35.

On to GUUAACGAUCAUAGGCCAUGGUAACUAGGAGCGCCAUUUCGCUGCCAGAGAAGAAAUGAACAAAGAGAAUCUGGGCCAGGCAGGCUUCAAAAGAGAUAGUCUUGCGCUCAACCAGAAAGUCUGUAAUCAUUUUAAGGGUA, for which the self-cleavage came to 1.72.

For the variant GUUAACUGUCAUAGGCCAUGGAAACUAGGAGCACCAUUUCGCUGCCGGUGAAGAAAUGAACAAAGAAAAUCUGGGCCAGCCAGGCAUCAAAAGAAGUAGUCUUGCGCUCAACCAGAAAGUCUGUAAUCAUUUUAAGGGUA, the self-cleavage stood at 0.12.

As for GUUAACUGUCAUAGGCCACGGGAACUAGGAGCACCAUUUCGCUGCCAGUGAAGAAAUGAACAAAGAAAAUCUGGGCCAGGCAGGCAUCAAAAGAAAUAGUCUUGCGCUCAACCAGAAAGUCUGUAAUCAUUUUAAGGGUA, the self-cleavage came out at 1.46.

In the case of GUUAACGAUCAUAGGCCAUGGAAACUAGGAGCACCAUUUCGCUGCCAGUGAAGAAAUGAACAAAGAAAAUCUGGGCCAGGCAGGCAUCAAUAGAAAUAGUCUUGCGCUCAGCCAGAAAGUCUGUAGUCAUCUUAAGGGCA, the self-cleavage came to 0.02.

As for GUUAACUGUCAUAGGCCAUGGAAGCUAGGAGCACCAUUUCGCUGCCAGUGAAGAAAUGAACAAAGAAAAUCUGGGCCAGGCAGGCAUCAGAAGAAAUAGUCUUGCGCUCAACCAGAAAGUCUGUGAUCAUUUUAAGGGUA, the self-cleavage is 0.25.

Turning to GUUAACGAUCUUAGGCCAUGGAAACUAGGAGCACCAUUUCGCUGCCAGUGAAGAAAUGAACAAAGAAAAUCUGGGCCAGGCAGGCAUCAAGAGAAAUAGUCUUGCGCUCGACCAGAAAGUCUGUAAUCAUUUUAAGGGUA, the self-cleavage was determined as 0.09.

Consider GUUAACGAUCAUAGGCCAUGGAAACUAGGAGCACCAUUUCGCUGCCAGUGAAGAAAUGAACAAGGAAAAUCUGGGCCAGGCAGGCAUCAAAAGAAAUAGUCUUGCGCUCAGCCAGAAAGUCUGUAAUCAUUUUAAGGGUA, for which the self-cleavage stood at 0.11.
